Data as given in paper PMC10923931.
No constants are given. Whether binding was seen depends on the method and setting. For part of these data: In cells and extracts the contact can be indirect. Some entries that bind do so weakly or less than the wild type. For part of these data: Sequences can lack the tags named with a protein.

Sequences of proteins named here, by UniProt entry; tags and fusion partners are left off.
UniProt Q8W4L3: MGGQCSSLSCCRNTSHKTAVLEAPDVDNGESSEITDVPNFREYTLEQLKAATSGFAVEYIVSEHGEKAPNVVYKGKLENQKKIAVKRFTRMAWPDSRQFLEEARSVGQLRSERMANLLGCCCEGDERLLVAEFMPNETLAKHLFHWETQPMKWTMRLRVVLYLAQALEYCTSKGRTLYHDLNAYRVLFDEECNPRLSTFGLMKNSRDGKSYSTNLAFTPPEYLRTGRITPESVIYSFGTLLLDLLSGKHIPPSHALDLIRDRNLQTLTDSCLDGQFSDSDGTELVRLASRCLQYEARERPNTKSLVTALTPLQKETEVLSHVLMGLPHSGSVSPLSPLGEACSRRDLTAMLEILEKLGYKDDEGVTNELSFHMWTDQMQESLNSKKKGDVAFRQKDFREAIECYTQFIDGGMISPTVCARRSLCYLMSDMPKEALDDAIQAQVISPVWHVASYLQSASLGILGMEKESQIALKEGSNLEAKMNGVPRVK
UniProt Q944A7: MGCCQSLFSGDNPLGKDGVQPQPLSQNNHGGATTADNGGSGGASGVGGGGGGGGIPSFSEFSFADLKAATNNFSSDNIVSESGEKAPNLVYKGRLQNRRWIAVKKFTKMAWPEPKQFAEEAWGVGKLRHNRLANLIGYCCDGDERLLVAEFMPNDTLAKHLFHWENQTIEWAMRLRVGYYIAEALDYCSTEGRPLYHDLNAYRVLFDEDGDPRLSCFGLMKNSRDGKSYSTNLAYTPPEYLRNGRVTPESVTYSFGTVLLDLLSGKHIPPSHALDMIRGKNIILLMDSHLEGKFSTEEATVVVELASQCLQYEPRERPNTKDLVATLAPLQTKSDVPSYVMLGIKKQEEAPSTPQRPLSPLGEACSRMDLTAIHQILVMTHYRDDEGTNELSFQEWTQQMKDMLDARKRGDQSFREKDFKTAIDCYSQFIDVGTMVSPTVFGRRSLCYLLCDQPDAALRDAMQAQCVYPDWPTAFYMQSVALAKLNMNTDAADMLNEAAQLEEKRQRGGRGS
UniProt O22476: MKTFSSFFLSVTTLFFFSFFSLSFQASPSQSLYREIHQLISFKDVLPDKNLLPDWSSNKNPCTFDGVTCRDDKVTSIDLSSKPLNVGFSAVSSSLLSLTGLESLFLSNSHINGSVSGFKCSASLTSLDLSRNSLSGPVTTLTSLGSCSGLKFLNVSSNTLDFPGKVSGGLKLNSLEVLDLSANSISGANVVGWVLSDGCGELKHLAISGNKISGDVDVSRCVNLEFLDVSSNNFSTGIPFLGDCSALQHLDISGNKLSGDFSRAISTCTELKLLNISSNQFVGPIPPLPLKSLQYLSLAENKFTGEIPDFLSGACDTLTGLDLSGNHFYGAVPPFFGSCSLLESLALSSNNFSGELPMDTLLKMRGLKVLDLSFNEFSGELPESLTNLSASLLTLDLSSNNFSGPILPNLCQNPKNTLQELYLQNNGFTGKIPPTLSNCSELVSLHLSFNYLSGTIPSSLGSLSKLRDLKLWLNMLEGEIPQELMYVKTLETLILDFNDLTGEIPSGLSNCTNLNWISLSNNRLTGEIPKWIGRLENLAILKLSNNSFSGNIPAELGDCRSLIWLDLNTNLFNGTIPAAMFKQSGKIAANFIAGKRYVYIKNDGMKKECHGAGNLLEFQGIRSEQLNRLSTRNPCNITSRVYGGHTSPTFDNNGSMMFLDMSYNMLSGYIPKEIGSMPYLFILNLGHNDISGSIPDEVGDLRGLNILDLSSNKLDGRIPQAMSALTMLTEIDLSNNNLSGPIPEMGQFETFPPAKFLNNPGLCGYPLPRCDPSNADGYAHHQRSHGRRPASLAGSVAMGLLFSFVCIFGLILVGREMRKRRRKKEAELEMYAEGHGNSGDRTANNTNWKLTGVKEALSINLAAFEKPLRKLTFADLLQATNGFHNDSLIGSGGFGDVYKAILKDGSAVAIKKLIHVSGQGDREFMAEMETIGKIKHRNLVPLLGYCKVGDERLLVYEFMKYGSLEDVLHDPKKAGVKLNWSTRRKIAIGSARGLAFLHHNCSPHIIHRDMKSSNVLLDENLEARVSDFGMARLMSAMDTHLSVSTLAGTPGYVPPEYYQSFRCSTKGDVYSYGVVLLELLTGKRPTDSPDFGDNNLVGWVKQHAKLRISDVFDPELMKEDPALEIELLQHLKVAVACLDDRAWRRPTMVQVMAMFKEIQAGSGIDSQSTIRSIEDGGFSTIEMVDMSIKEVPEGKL

B1: SERK4 in pCAMBIA1300-nLuc (receptor, UniProt Q9SKG5 34-620)
chain: DALTQLKNSLSSGDPANNVLQSWDATLVTPCTWFHVTCNPENKVTRVDLGNAKLSGKLVPELGQLLNLQYLELYSNNITGEIPEELGDLVELVSLDLYANSISGPIPSSLGKLGKLRFLRLNNNSLSGEIPMTLTSVQLQVLDISNNRLSGDIPVNGSFSLFTPISFANNSLTDLPEPPPTSTSPTPPPPSGGQMTAAIAGGVAAGAALLFAVPAIAFAWWLRRKPQDHFFDVPAEEDPEVHLGQLKRFTLRELLVATDNFSNKNVLGRGGFGKVYKGRLADGNLVAVKRLKEERTKGGELQFQTEVEMISMAVHRNLLRLRGFCMTPTERLLVYPYMANGSVASCLRERPEGNPALDWPKRKHIALGSARGLAYLHDHCDQKIIHRDVKAANILLDEEFEAVVGDFGLAKLMNYNDSHVTTAVRGTIGHIAPEYLSTGKSSEKTDVFGYGVMLLELITGQKAFDLARLANDDDIMLLDWVKEVLKEKKLESLVDAELEGKYVETEVEQLIQMALLCTQSSAMERPKMSEVVRMLEGDGLAERWEEWQKEEMPIHDFNYQAYPHAGTDWLIPYSNSLIENDYPSGPR
B2: SERK1 in pCAMBIA1300-nLuc (receptor, UniProt Q94AG2 27-625)
chain: NLEGDALHTLRVTLVDPNNVLQSWDPTLVNPCTWFHVTCNNENSVIRVDLGNAELSGHLVPELGVLKNLQYLELYSNNITGPIPSNLGNLTNLVSLDLYLNSFSGPIPESLGKLSKLRFLRLNNNSLTGSIPMSLTNITTLQVLDLSNNRLSGSVPDNGSFSLFTPISFANNLDLCGPVTSHPCPGSPPFSPPPPFIQPPPVSTPSGYGITGAIAGGVAAGAALLFAAPAIAFAWWRRRKPLDIFFDVPAEEDPEVHLGQLKRFSLRELQVASDGFSNKNILGRGGFGKVYKGRLADGTLVAVKRLKEERTPGGELQFQTEVEMISMAVHRNLLRLRGFCMTPTERLLVYPYMANGSVASCLRERPPSQPPLDWPTRKRIALGSARGLSYLHDHCDPKIIHRDVKAANILLDEEFEAVVGDFGLAKLMDYKDTHVTTAVRGTIGHIAPEYLSTGKSSEKTDVFGYGIMLLELITGQRAFDLARLANDDDVMLLDWVKGLLKEKKLEMLVDPDLQTNYEERELEQVIQVALLCTQGSPMERPKMSEVVRMLEGDGLAEKWDEWQKVEILREEIDLSPNPNSDWILDSTYNLHAVELSGPR
B3: SERK2 in pCAMBIA1300-nLuc (receptor, UniProt Q9XIC7 30-628)
chain: NMEGDALHSLRANLVDPNNVLQSWDPTLVNPCTWFHVTCNNENSVIRVDLGNADLSGQLVPQLGQLKNLQYLELYSNNITGPVPSDLGNLTNLVSLDLYLNSFTGPIPDSLGKLFKLRFLRLNNNSLTGPIPMSLTNIMTLQVLDLSNNRLSGSVPDNGSFSLFTPISFANNLDLCGPVTSRPCPGSPPFSPPPPFIPPPIVPTPGGYSATGAIAGGVAAGAALLFAAPALAFAWWRRRKPQEFFFDVPAEEDPEVHLGQLKRFSLRELQVATDSFSNKNILGRGGFGKVYKGRLADGTLVAVKRLKEERTPGGELQFQTEVEMISMAVHRNLLRLRGFCMTPTERLLVYPYMANGSVASCLRERPPSQLPLAWSIRQQIALGSARGLSYLHDHCDPKIIHRDVKAANILLDEEFEAVVGDFGLARLMDYKDTHVTTAVRGTIGHIAPEYLSTGKSSEKTDVFGYGIMLLELITGQRAFDLARLANDDDVMLLDWVKGLLKEKKLEMLVDPDLQSNYTEAEVEQLIQVALLCTQSSPMERPKMSEVVRMLEGDGLAEKWDEWQKVEVLRQEVELSSHPTSDWILDSTDNLHAMELSGPR
B4: SERK4-KD (kinase domain of SERK4) in pGADT7 (domain or fragment, UniProt Q9SKG5 294-591)
chain: FSNKNVLGRGGFGKVYKGRLADGNLVAVKRLKEERTKGGELQFQTEVEMISMAVHRNLLRLRGFCMTPTERLLVYPYMANGSVASCLRERPEGNPALDWPKRKHIALGSARGLAYLHDHCDQKIIHRDVKAANILLDEEFEAVVGDFGLAKLMNYNDSHVTTAVRGTIGHIAPEYLSTGKSSEKTDVFGYGVMLLELITGQKAFDLARLANDDDIMLLDWVKEVLKEKKLESLVDAELEGKYVETEVEQLIQMALLCTQSSAMERPKMSEVVRMLEGDGLAERWEEWQKEEMPIHDFN
B5: SERK1-KD (kinase domain of SERK1) in pGADT7 (domain or fragment, UniProt Q94AG2 302-589)
chain: FSNKNILGRGGFGKVYKGRLADGTLVAVKRLKEERTPGGELQFQTEVEMISMAVHRNLLRLRGFCMTPTERLLVYPYMANGSVASCLRERPPSQPPLDWPTRKRIALGSARGLSYLHDHCDPKIIHRDVKAANILLDEEFEAVVGDFGLAKLMDYKDTHVTTAVRGTIGHIAPEYLSTGKSSEKTDVFGYGIMLLELITGQRAFDLARLANDDDVMLLDWVKGLLKEKKLEMLVDPDLQTNYEERELEQVIQVALLCTQGSPMERPKMSEVVRMLEGDGLAEKWDEWQ
B6: SERK2-KD (kinase domain of SERK2) in pGADT7 (domain or fragment, UniProt Q9XIC7 305-592)
chain: FSNKNILGRGGFGKVYKGRLADGTLVAVKRLKEERTPGGELQFQTEVEMISMAVHRNLLRLRGFCMTPTERLLVYPYMANGSVASCLRERPPSQLPLAWSIRQQIALGSARGLSYLHDHCDPKIIHRDVKAANILLDEEFEAVVGDFGLARLMDYKDTHVTTAVRGTIGHIAPEYLSTGKSSEKTDVFGYGIMLLELITGQRAFDLARLANDDDVMLLDWVKGLLKEKKLEMLVDPDLQSNYTEAEVEQLIQVALLCTQSSPMERPKMSEVVRMLEGDGLAEKWDEWQ
B7: BKI1 in pGADT7 (protein, UniProt Q9FMZ0 1-337)
chain: METNLQQVKNSSQTFSEKQNPKQEASPSPISSTCSSPSHDFSFTISLQPLSSSSKHISPTLRSPSKTTSSYQQTDPFAVDLSPADEIFFHGHLLPLHLLSHLPVSPRTSTGSYNDGFTLPVKDILPDQPTNNNNNTENAITNISTEAKDDNTEDKAEGEIRVKTKPIKSFSLFGLSKWRKGFESNEREQEQQQQKIKKPMSLDLSHAVKKYIRMLFQKRGNGTQFWNRRQTSSYSFSSSLMGPNGNSKTMINGSYNKRDLIRGRRGELFSAPASMRTSPTNSGHLRVSTAGLSSSSGSTSSSSSDSTMEELQAAIQAAIAHCKNSSAVDRDDKVKDS
B8: …OPEPTIDE-REPEAT THIOREDOXIN-LIKE1 (TTL1) in pGADT7 (protein, UniProt Q9MAH1 1-699)
chain: MPKSVKPISESDKLSDHLRDSSLTSEINKPDFRELDLGSPVSPLRSQPRGLTTTTTTTTTSSSSSSSSGSVTGRIKHAPVIGRSNSVRSQSNSSSGNNNLRPRSDSATTSSSSHSQPLLSSSSSSATSPAPTSPANVLPTGNICPSGKIQITGMTQSRSRSDVLGSGTGTYGHGSIMRGGGISPAKPTNTGGGSNSPVNVGSSSRSSSTVATGETPIWKKAILGSDSEEVKRVGNEMYRKGLFNEALKLYDRAIALSPTNAAYRSNRAAALIGLSRIGEAVKECEDAVRSDPNYGRAHHRLALLLIRLGQVNSARKHLCFLGRPSDPMELQKLEAVEKHLIKCVDARRVTDWKTVLIEADAAIVSGADFSPQLFMCKVEAFLKLHRLDDAQSKLLEVPKVEPFPVSCSQTRFSGMACEAYIYFVKAQIEMALGRFENAVMAAEKASQIDPRCNEVAMLHNTVTLVARARARGNDLYKSERYTEASSAYAEGLRLDPCNAILYCNRAACWFKLGMWERSIEDCNQALRYQPSYTKPLLRRAASNSKMERWGAAVSDYEALIRELPHDKEVAESLFHAQVALKKSRGEEVLNMEFGGEVEEIYSLEQFKSAMNLPGVSVIHFSTASDHQCKQISPFVDSLCTRYPSIHFLKVDIDKCPSIGNAENVRVVPTVKIYKNGSRVKEIVCPSKEVLEYSVRHYSG
B9: TTL4 in pGADT7 (protein, UniProt Q84JR9 1-682)
chain: MSHYRRHSLEPSITSKFRDSLSFQRDDDVINKPDFRELDFGSPLRPRGSSSAAATPAASGSSSSSSGSASGKPAVTSQFARRSHSGELSGLSQTSPVKPGSVNRNLKPGHRRSASAGTPLIYSGLGFSPVNNNNNSSRGGGSGATSPNPGVLPTGNICPSGRILKTGMATRASVRPETLCTGTANYGHGNIIRTGGKVSHATKAAAEMSDSEEVKKAGNVMYRKGNYAEALALYDRAISLSPENPAYRSNRAAALAASGRLEEAVKECLEAVRCDPSYARAHQRLASLYLRLGEAENARRHLCVSGQCPDQADLQRLQTLEKHLRLCTEARKIGDWRTVISEIDAAIANGADSSPQLVACKAEAFLRLHQIKDSDLCISSIPRLDHHHTQPPEKLFGIVCDAYVLCVQAQVDMALGRFENAIVKVERAMTIDHSNSPEVVSVLNNVKNVAKARTRGNELFSSGRYSEASVAYGDGLKLDAFNSVLYCNRAACWFKLGMWEKSVDDCNQALRIQPSYTKALLRRAASYGKLGRWEDAVRDYEVLRKELPGDSEVAESLQRARNALSNKSEEPKYLGFNNEVEEVSTLDKFKTATSLPGISVFHFKSSSNRQSEAISPFVNTLCLRYPLVHFFKVDVEESLALAKAESIKKIPTFKIYKKGEKVKEMVCPSHQLLEDSVTHFLL

These molecules were tested against T1, BON1 in pCAMBIA1300-cLuc (Arabidopsis thaliana) (UniProt Q941L3) (assay: split reporter; split luciferase complementation (SLC); cLuc and nLuc fusions co-expressed in N. benthamiana leaves by Agrobacterium, imaged 2 days post inoculation).
T1 sequence: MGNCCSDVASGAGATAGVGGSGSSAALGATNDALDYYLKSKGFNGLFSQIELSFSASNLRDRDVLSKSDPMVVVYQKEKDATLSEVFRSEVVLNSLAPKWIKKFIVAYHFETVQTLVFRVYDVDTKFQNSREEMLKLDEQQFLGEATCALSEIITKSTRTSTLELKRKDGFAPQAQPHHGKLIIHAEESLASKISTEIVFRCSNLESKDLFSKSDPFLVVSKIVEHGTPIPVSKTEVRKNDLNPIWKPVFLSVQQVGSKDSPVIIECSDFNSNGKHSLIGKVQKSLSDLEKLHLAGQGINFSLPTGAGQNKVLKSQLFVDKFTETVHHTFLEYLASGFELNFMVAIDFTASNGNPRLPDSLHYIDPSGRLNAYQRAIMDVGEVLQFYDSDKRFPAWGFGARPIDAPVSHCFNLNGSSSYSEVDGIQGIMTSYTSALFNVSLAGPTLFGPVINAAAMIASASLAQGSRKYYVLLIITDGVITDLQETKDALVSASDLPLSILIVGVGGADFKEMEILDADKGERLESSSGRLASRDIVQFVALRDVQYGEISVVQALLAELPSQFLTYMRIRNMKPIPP
B1 was tested, and the binding was “binds”. B2 was tested, and the binding was “binds”. With B3 the binding was “binds”.

What follows are molecules tested against T2, BON1-A (C-terminal A domain of BON1, from Val-319 to Pro-578), bait in pGBKT7 (Arabidopsis thaliana) (UniProt Q941L3) (assay: two-hybrid; pairwise co-transformation of pGBKT7 and pGADT7 constructs into yeast strain Y2H Gold; growth on SC -Leu/-Trp and SC -Ade/-His/-Leu/-Trp with X-a-Gal).
T2 sequence: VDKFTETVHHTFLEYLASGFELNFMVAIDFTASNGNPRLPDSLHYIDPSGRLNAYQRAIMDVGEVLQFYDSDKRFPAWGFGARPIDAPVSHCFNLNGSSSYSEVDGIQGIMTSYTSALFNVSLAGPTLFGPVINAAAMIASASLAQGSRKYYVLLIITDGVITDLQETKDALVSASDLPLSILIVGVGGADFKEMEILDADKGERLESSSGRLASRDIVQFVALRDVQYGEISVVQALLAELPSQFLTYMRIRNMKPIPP
“BSK3 in pGADT7 (from UniProt Q8W4L3 1-489)” was tested, and the binding was “no binding”. In the case of “BSK1 in pGADT7 (from UniProt Q944A7 1-512)”, the binding is reported as “no binding”. In the case of “BRI1 in pGADT7 (from UniProt O22476 1-1196) (receptor)”, the binding is reported as “no binding”. B4 was tested, and the binding was “binds”. In the case of B5, the binding is reported as “binds”. With B6 the binding was “binds”. For B7, the binding was “no binding”. In the case of B8, the binding is reported as “no binding”. For B9, the binding was “no binding”.
